{
  "source": "the supplement of paper PMC8728848",
  "binders": {"B1": {"name": "PX14367A-bth-493-35-493 (Bacteroides thetaiotaomicron) (protein)", "chain": "VSSDQVAVAGNAERLFNGAWYNLFEYGTTYANIGYRALQCQDDMMASDVVSRPKYGFNSSYQFNDVAIPSDGRTSFAWYLIYKTIDNCNTAISIKGDSEELRQAQGQALALRAFCYLHLVQHYQFTYLKDKDAPCVPIYTEPTTSGTKPKGKSTVAQVYQQIFDDLNLAQDYLTNYVRKGDGQKFKPNTDVVNGLMARAYLLTGQWGEAAKAAEAARKGYSLMTTTAEYEGFNNISNKEWIWGSPQTLSQSDASYNFYYLDATYVGAYSSFMADPHLMDTFVKGDIRLPLFQWMREGYLGYKKFHMRSDDTADLVLMRSAEMYLIEAEAKVRDGVALDQAVAPLNTLRTARGVGNYDVTGKTKEQVIDEILMERRRELWGEGFGITDVLRNQKAVERMALSEDMQKTEVDCWQEGGSFAKRNPLGHWFLNFPDGKAFSANSSYYLYAIPEKEINANPNL"}},
  "assay_in_all_cases": "glycan array binding signal (z-score within array); higher = stronger binding",
  "settings_in_all_cases": "glycan notation: IUPAC condensed, linker removed",
  "key": {"[1]": {"target": "Neu5Ac(a2-6)Gal(b1-4)GlcNAc(b1-3)Gal(b1-4)GlcNAc(b1-3)GalNAc", "in_short": "(§1)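 Columns mapping to the same glycan were averaged after glycan names were converted to IUPAC-condensed notation. The data come from 3228 arrays in the Consortium for Functional Glycomics database, limited to those with an available protein sequence. Binding is reported as a within-array Z-score averaged across arrays of one protein sequence and across linkers.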"}, "[2]": {"target": "Neu5Ac(a2-6)Gal(b1-4)GlcNAc(b1-3)Gal(b1-4)GlcNAc(b1-3)[Neu5Ac(a2-6)Gal(b1-4)GlcNAc(b1-3)Gal(b1-4)GlcNAc(b1-6)]GalNAc", "in_short": "as §1"}, "[3]": {"target": "Neu5Ac(a2-6)Gal(b1-4)GlcNAc(b1-3)Gal(b1-4)GlcNAc(b1-6)[Gal(b1-3)]GalNAc", "in_short": "as §1"}, "[4]": {"target": "Neu5Ac(a2-6)Gal(b1-4)GlcNAc(b1-3)Gal(b1-4)[Fuc(a1-3)]GlcNAc(b1-3)Gal(b1-4)[Fuc(a1-3)]GlcNAc", "in_short": "as §1"}, "[5]": {"target": "Neu5Ac(a2-6)Gal(b1-4)GlcNAc(b1-3)GalNAc", "in_short": "as §1"}, "[6]": {"target": "Neu5Ac(a2-6)Gal(b1-4)GlcNAc(b1-3)[Neu5Ac(a2-6)Gal(b1-4)GlcNAc(b1-6)]GalNAc", "in_short": "as §1"}, "[7]": {"target": "Neu5Ac(a2-6)Gal(b1-4)GlcNAc(b1-6)GalNAc", "in_short": "as §1"}, "[8]": {"target": "Neu5Ac(a2-6)Gal(b1-4)GlcNAc(b1-6)[Gal(b1-3)GlcNAc(b1-3)]Gal(b1-4)Glc", "in_short": "as §1"}, "[9]": {"target": "Neu5Ac(a2-6)Gal(b1-4)GlcNAc(b1-6)[Gal(b1-3)]GalNAc", "in_short": "as §1"}, "[10]": {"target": "Neu5Ac(a2-6)Gal(b1-4)GlcNAc6S", "in_short": "as §1"}, "Neu5Ac(a2-6)GalNAc": {"target": "Neu5Ac(a2-6)GalNAc", "in_short": "as §1"}, "[11]": {"target": "Neu5Ac(a2-6)GalNAc(b1-4)GlcNAc", "in_short": "as §1"}, "[12]": {"target": "Neu5Ac(a2-6)GalNAc(b1-4)GlcNAc6S", "in_short": "as §1"}, "[13]": {"target": "Neu5Ac(a2-6)GlcNAc(b1-4)GlcNAc", "in_short": "as §1"}, "[14]": {"target": "Neu5Ac(a2-6)GlcNAc(b1-4)GlcNAc(b1-4)GlcNAc", "in_short": "as §1"}, "Neu5Ac(a2-8)Neu5Ac": {"target": "Neu5Ac(a2-8)Neu5Ac", "in_short": "as §1"}, "[15]": {"target": "Neu5Ac(a2-8)Neu5Ac(a2-3)Gal(b1-3)GalNAc(b1-4)[Neu5Ac(a2-3)]Gal(b1-4)Glc", "in_short": "as §1"}, "[16]": {"target": "Neu5Ac(a2-8)Neu5Ac(a2-3)Gal(b1-3)GalNAc(b1-4)[Neu5Ac(a2-8)Neu5Ac(a2-3)]Gal(b1-4)Glc", "in_short": "as §1"}, "[17]": {"target": "Neu5Ac(a2-8)Neu5Ac(a2-3)Gal(b1-4)Glc", "in_short": "as §1"}, "[18]": {"target": "Neu5Ac(a2-8)Neu5Ac(a2-3)Gal(b1-4)GlcNAc", "in_short": "as §1"}, "[19]": {"target": "Neu5Ac(a2-8)Neu5Ac(a2-3)[Gal(b1-3)GalNAc(b1-4)]Gal(b1-4)Glc", "in_short": "as §1"}, "[20]": {"target": "Neu5Ac(a2-8)Neu5Ac(a2-3)[GalNAc(b1-4)]Gal(b1-4)Glc", "in_short": "as §1"}, "[21]": {"target": "Neu5Ac(a2-8)Neu5Ac(a2-8)Neu5Ac", "in_short": "as §1"}, "[22]": {"target": "Neu5Ac(a2-8)Neu5Ac(a2-8)Neu5Ac(a2-3)Gal(b1-4)Glc", "in_short": "as §1"}, "[23]": {"target": "Neu5Ac(a2-8)Neu5Ac(a2-8)Neu5Ac(a2-3)[Gal(b1-3)GalNAc(b1-4)]Gal(b1-4)Glc", "in_short": "as §1"}, "[24]": {"target": "Neu5Ac(a2-8)Neu5Ac(a2-8)Neu5Ac(a2-3)[GalNAc(b1-4)]Gal(b1-4)Glc", "in_short": "as §1"}, "[25]": {"target": "Neu5Ac(a2-8)Neu5Ac(a2-8)Neu5Ac(a2-8)Neu5Ac(a2-3)[GalNAc(b1-4)]Gal(b1-4)Glc", "in_short": "as §1"}, "[26]": {"target": "Neu5Ac(a2-8)Neu5Gc(a2-3)Gal(b1-4)GlcNAc", "in_short": "as §1"}, "[27]": {"target": "Neu5Ac(b2-6)Gal(b1-4)GlcNAc", "in_short": "as §1"}, "Neu5Ac(b2-6)GalNAc": {"target": "Neu5Ac(b2-6)GalNAc", "in_short": "as §1"}, "[28]": {"target": "Neu5Ac9Ac(a2-3)Gal(b1-3)GlcNAc", "in_short": "as §1"}, "[29]": {"target": "Neu5Ac9Ac(a2-3)Gal(b1-4)GlcNAc", "in_short": "as §1"}, "[30]": {"target": "Neu5Ac9Ac(a2-6)Gal(b1-4)GlcNAc", "in_short": "as §1"}, "[31]": {"target": "Neu5Gc(a2-3)Gal(b1-3)GlcNAc", "in_short": "as §1"}, "[32]": {"target": "Neu5Gc(a2-3)Gal(b1-3)[Fuc(a1-4)]GlcNAc", "in_short": "as §1"}, "Neu5Gc(a2-3)Gal(b1-4)Glc": {"target": "Neu5Gc(a2-3)Gal(b1-4)Glc", "in_short": "as §1"}, "[33]": {"target": "Neu5Gc(a2-3)Gal(b1-4)GlcNAc", "in_short": "as §1"}, "[34]": {"target": "Neu5Gc(a2-3)Gal(b1-4)GlcNAc(b1-3)Gal(b1-4)GlcNAc(b1-2)Man(a1-3)[Neu5Gc(a2-3)Gal(b1-4)GlcNAc(b1-3)Gal(b1-4)GlcNAc(b1-2)Man(a1-6)]Man(b1-4)GlcNAc(b1-4)GlcNAc", "in_short": "as §1"}, "[35]": {"target": "Neu5Gc(a2-3)Gal(b1-4)[Fuc(a1-3)]GlcNAc", "in_short": "as §1"}, "[36]": {"target": "Neu5Gc(a2-6)Gal(b1-4)GlcNAc", "in_short": "as §1"}, "Neu5Gc(a2-6)GalNAc": {"target": "Neu5Gc(a2-6)GalNAc", "in_short": "as §1"}, "[37]": {"target": "Neu5Gc(a2-8)Neu5Ac(a2-3)Gal(b1-4)GlcNAc", "in_short": "as §1"}, "[38]": {"target": "Neu5Gc(a2-8)Neu5Gc(a2-3)Gal(b1-4)GlcNAc", "in_short": "as §1"}, "[39]": {"target": "Neu5Gc(a2-8)Neu5Gc(a2-3)Gal(b1-4)GlcNAc(b1-3)Gal(b1-4)GlcNAc", "in_short": "as §1"}, "[40]": {"target": "Neu5Gc(a2-8)Neu5Gc(a2-6)Gal(b1-4)GlcNAc", "in_short": "as §1"}, "[41]": {"target": "Neu5Gc(b2-6)Gal(b1-4)GlcNAc", "in_short": "as §1"}},
  "note": "The other results are listed elsewhere or left out.",
  "data": [
    {"binder": "B1", "values": [
      {"measurement": "glycan array binding signal (z-score)", "setting": "[1]", "result": 0.206},
      {"measurement": "glycan array binding signal (z-score)", "setting": "[2]", "result": -0.201},
      {"measurement": "glycan array binding signal (z-score)", "setting": "[3]", "result": -0.406},
      {"measurement": "glycan array binding signal (z-score)", "setting": "[4]", "result": 0.72},
      {"measurement": "glycan array binding signal (z-score)", "setting": "[5]", "result": -0.109},
      {"measurement": "glycan array binding signal (z-score)", "setting": "[6]", "result": -0.601},
      {"measurement": "glycan array binding signal (z-score)", "setting": "[7]", "result": -0.706},
      {"measurement": "glycan array binding signal (z-score)", "setting": "[8]", "result": 0.106},
      {"measurement": "glycan array binding signal (z-score)", "setting": "[9]", "result": 0.377},
      {"measurement": "glycan array binding signal (z-score)", "setting": "[10]", "result": -0.513},
      {"measurement": "glycan array binding signal (z-score)", "setting": "Neu5Ac(a2-6)GalNAc", "result": -0.43},
      {"measurement": "glycan array binding signal (z-score)", "setting": "[11]", "result": -0.719},
      {"measurement": "glycan array binding signal (z-score)", "setting": "[12]", "result": -0.442},
      {"measurement": "glycan array binding signal (z-score)", "setting": "[13]", "result": -0.254},
      {"measurement": "glycan array binding signal (z-score)", "setting": "[14]", "result": -0.31},
      {"measurement": "glycan array binding signal (z-score)", "setting": "Neu5Ac(a2-8)Neu5Ac", "result": -0.536},
      {"measurement": "glycan array binding signal (z-score)", "setting": "[15]", "result": -0.043},
      {"measurement": "glycan array binding signal (z-score)", "setting": "[16]", "result": 0.477},
      {"measurement": "glycan array binding signal (z-score)", "setting": "[17]", "result": -0.436},
      {"measurement": "glycan array binding signal (z-score)", "setting": "[18]", "result": -0.461},
      {"measurement": "glycan array binding signal (z-score)", "setting": "[19]", "result": -0.3},
      {"measurement": "glycan array binding signal (z-score)", "setting": "[20]", "result": -0.14},
      {"measurement": "glycan array binding signal (z-score)", "setting": "[21]", "result": -0.109},
      {"measurement": "glycan array binding signal (z-score)", "setting": "[22]", "result": -0.224},
      {"measurement": "glycan array binding signal (z-score)", "setting": "[23]", "result": -0.506},
      {"measurement": "glycan array binding signal (z-score)", "setting": "[24]", "result": 0.062},
      {"measurement": "glycan array binding signal (z-score)", "setting": "[25]", "result": 1.03},
      {"measurement": "glycan array binding signal (z-score)", "setting": "[26]", "result": 11.1},
      {"measurement": "glycan array binding signal (z-score)", "setting": "[27]", "result": -0.259},
      {"measurement": "glycan array binding signal (z-score)", "setting": "Neu5Ac(b2-6)GalNAc", "result": -0.169},
      {"measurement": "glycan array binding signal (z-score)", "setting": "[28]", "result": -0.122},
      {"measurement": "glycan array binding signal (z-score)", "setting": "[29]", "result": -0.272},
      {"measurement": "glycan array binding signal (z-score)", "setting": "[30]", "result": -0.162},
      {"measurement": "glycan array binding signal (z-score)", "setting": "[31]", "result": -0.453},
      {"measurement": "glycan array binding signal (z-score)", "setting": "[32]", "result": -0.288},
      {"measurement": "glycan array binding signal (z-score)", "setting": "Neu5Gc(a2-3)Gal(b1-4)Glc", "result": -0.51},
      {"measurement": "glycan array binding signal (z-score)", "setting": "[33]", "result": -0.379},
      {"measurement": "glycan array binding signal (z-score)", "setting": "[34]", "result": -0.346},
      {"measurement": "glycan array binding signal (z-score)", "setting": "[35]", "result": -0.326},
      {"measurement": "glycan array binding signal (z-score)", "setting": "[36]", "result": -0.3},
      {"measurement": "glycan array binding signal (z-score)", "setting": "Neu5Gc(a2-6)GalNAc", "result": 0.297},
      {"measurement": "glycan array binding signal (z-score)", "setting": "[37]", "result": -0.456},
      {"measurement": "glycan array binding signal (z-score)", "setting": "[38]", "result": -0.549},
      {"measurement": "glycan array binding signal (z-score)", "setting": "[39]", "result": -0.049},
      {"measurement": "glycan array binding signal (z-score)", "setting": "[40]", "result": -0.286},
      {"measurement": "glycan array binding signal (z-score)", "setting": "[41]", "result": -0.512}
    ]}
  ]
}
